From patent US5576355A, “Diamondoid derivatives for pharmaceutical use” (priority 1993, dated 1996)

System: AZT resistant strain (AZTR) of HIV-1
Experiment: Anti-HIV assay (MTT), pre- or post-infection, AZT resistant strain
Parameters: key: ++++: significant and reproducible inhibition of cytopathic effect; +++: significant and reproducible inhibition of cytopathic effect; +: noticeable but minimal protection; ---: no protective effect was observed; --: no protective effect was observed; -: no protection was observed but some changes in the cell culture occurred
Protocol: The AZT resistant strain (AZTR) of HIV-1 (cat. no. 629) which was isolated from an AIDS patient and developed by Douglas Richman was also obtained from the AIDS repository. (Larder et al., Science, 1989, 243, 1731-1734)
MN was grown in H9 cells. […] J. Hyg., 1938, 27, 493-7.

Structure (SMILES)	AZTR Post-Infection	AZTR Pre-Infection
O[C@@H]1[C@@H]2C[C@H]3C[C@@H](C2)C2(OCCO2)[C@@H]1C3 (relative stereo) [Compound 8, 4(e)-hydroxy-2-adamantanone ethylene glycol ketal]	--	--
OC12CC3(O)CC(O)(C1)CC(O)(C2)C3 [Compound 1, 1,3,5,7-tetrahydroxyadamantane]	--	--
CC12CC3(C)CC(O)(C1)CC(O)(C2)C3 [Compound 2, 1,3-dihydroxy-5,7-dimethyladamantane]	--	--
C[N+](C)(C)CCC[N+](C)(C)C1C2CC3C4CC5CC3C1C(C5)C4C2 (centres unmarked) [Compound 3, N-3-diamantyl-N,N,N',N',N'-pentamethyl propane-1,3-bis ammonium diiodide]	--	--
O=C(O)CNC1C2CC3CC(C2)CC1C3 (centres unmarked) [Compound 5, N-2-adamantyl glycine]	--	--
O=C1C2CC3CC(C2)C(=O)C1C3 [Compound 7, 2,4-adamantanedione]	--	
